Laboratory results reported in paper PMC2588512 (Nucleic Acids Research, 2008).

Molecular target: Recombinant human CAF1 (CCR4-associated factor 1), GST tag removed (human, UniProt Q9UIV1)
Test: pull-down

B1: GST-BTG2 E115A (natural protein)
chain: not shown
binding result: binds
